Data on 59 compounds can be found in paper PMC4336329 (PLoS ONE, 2015).

The campaign covered roughly 310,000 compounds. About 14,000 (4.5%) showed an effect of 50% or more. Effects have a minus sign here. The list shows a part of the results.
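Note: peak tail current of the secondary pulse compared with the same well before compound.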

Chain of human ether-à-go-go-related gene (hERG) potassium channel (Q12809 whole entry, looked up): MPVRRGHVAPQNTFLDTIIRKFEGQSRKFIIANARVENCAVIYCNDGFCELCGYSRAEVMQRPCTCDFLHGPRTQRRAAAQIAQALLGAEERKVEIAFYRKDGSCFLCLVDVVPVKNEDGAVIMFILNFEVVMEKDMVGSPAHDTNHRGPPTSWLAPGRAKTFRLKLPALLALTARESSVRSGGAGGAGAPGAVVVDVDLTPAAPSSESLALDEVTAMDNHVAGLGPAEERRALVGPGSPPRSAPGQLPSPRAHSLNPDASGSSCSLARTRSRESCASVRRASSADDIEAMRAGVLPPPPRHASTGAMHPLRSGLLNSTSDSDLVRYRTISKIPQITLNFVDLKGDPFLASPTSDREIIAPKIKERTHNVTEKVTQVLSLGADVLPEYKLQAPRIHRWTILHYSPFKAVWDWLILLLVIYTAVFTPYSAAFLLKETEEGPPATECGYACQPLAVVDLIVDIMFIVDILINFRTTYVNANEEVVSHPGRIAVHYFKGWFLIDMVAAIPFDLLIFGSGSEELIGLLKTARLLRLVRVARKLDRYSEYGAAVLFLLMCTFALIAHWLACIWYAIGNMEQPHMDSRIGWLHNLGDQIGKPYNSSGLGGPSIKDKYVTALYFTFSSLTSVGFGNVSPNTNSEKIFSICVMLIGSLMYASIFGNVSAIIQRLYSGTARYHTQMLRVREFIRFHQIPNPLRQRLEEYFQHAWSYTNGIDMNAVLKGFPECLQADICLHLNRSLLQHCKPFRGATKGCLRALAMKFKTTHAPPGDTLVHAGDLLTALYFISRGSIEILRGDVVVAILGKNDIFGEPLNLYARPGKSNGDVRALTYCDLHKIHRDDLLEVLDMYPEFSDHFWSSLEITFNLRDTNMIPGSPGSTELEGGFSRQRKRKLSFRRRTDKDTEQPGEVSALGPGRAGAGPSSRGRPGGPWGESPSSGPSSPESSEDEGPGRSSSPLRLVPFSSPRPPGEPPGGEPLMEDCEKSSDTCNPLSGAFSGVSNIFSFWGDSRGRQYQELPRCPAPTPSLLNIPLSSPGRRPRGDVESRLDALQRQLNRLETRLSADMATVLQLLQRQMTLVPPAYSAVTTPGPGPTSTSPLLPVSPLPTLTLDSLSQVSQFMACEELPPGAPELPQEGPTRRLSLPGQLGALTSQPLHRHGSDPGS

This assay concerns the target human ether-à-go-go-related gene (hERG) potassium channel (human, UniProt Q12809). In words: primary screen, population patch clamp on CHO cells stably expressing hERG.
Turning to `CC(=O)Oc1ccc(C(=O)Nc2ccccc2C(=O)Nc2ccc(C(=O)O)cc2)cc1`, the “hERG current change (%, negative = inhibition) at 10uM” value came to 24.3%.
On to `C/C(CC(=O)Nc1ccccc1C)=N\NC(=O)Cc1csc(N)n1.CC(C)O`, for which the “hERG current change (%, negative = inhibition) at 10uM” value was found to be 1.99%.
`Cc1ccc2c(CC(=O)Nc3c(C)n(C)n(-c4ccccc4)c3=O)coc2c1`: the “hERG current change (%, negative = inhibition) at 10uM” value is on record as -7.21%.
The same measure for `CCN(CC)C(=O)C1CCCN(Cc2cccc(Oc3ccccc3)c2)C1` (centres unmarked): -19.6%.
In the case of `C=CCN(C)NC(=O)Nc1ccccc1`, the “hERG current change (%, negative = inhibition) at 10uM” value worked out at 18.4%.
The same measure for `NC(=O)C1CCN(C(=O)N2c3ccccc3Sc3ccccc32)CC1`: -8.44%; for `CCCn1cnc2scc(-c3ccc(OC)cc3)c2c1=O`: 7.18%.
With `O=C(NNc1ccccn1)C(c1ccccc1)c1ccccc1`, the “hERG current change (%, negative = inhibition) at 10uM” value was 2.37%.
The same measure for `Cc1nnc(NC(=O)CCn2c(=O)oc3ccccc32)s1`: 15.9%.
In the case of `O=C(NCCN1CCOCC1)/C(=C\c1ccc(F)cc1)NC(=O)c1ccccc1`, the “hERG current change (%, negative = inhibition) at 10uM” value is -62.3%.
The same measure for `S=C(Nc1ccc2nsnc2c1)N1CCCC1`: 10.2%.
As to `CC(=O)c1cc(-c2ccccc2)n(CCC(=O)NC2CCC(C)CC2)c1C` (centres unmarked), the “hERG current change (%, negative = inhibition) at 10uM” value amounted to 12.6%.
Take `COc1ccc(C(C)=O)cc1COc1cc(C)c(Cl)c(C)c1`: the “hERG current change (%, negative = inhibition) at 10uM” value stood at 9.44%.
As for `COc1ccc(OC)c(Nc2nc(C)nc3c2oc2ccccc23)c1`, the “hERG current change (%, negative = inhibition) at 10uM” value is 5.02%.
On to `CCOC(=O)C1CCN(C(=O)Nc2ccc(OCc3ccccc3)cc2)CC1`, for which the “hERG current change (%, negative = inhibition) at 10uM” value stood at 3.86%.
The same measure for `O=C(O)C1CCCN1S(=O)(=O)c1ccc2ccccc2c1` (centres unmarked): 17.8%; for `Cc1cc(C)nc(SCc2nnc(SCC(=O)OC3CCCCC3)o2)n1`: -8.12%.
For `COc1cc(CNn2cn[nH]c2=S)ccc1OCC(=O)NC(C)(C)C`, the “hERG current change (%, negative = inhibition) at 10uM” value was determined as 8.18%.
With `Cc1nn2cc(-c3cccc(Cl)c3)cnc2c1Br`, the “hERG current change (%, negative = inhibition) at 10uM” value turned out to be 12.2%.
The same measure for `Cc1cccc(NC(=O)c2cc3ccccc3o2)c1`: -19.8%.
The same measure for `CC(C)CN1C(=O)C(NC(=O)C2CC2)(C(F)(F)F)C2=C1CC(C)(C)CC2=O` (centres unmarked): 6.42%.
In the case of `CCCCN(C(=O)c1ccc2c(c1)S(=O)(=O)N=C1CCCCCN12)c1c(N)n(CCCC)c(=O)[nH]c1=O`, the “hERG current change (%, negative = inhibition) at 10uM” value amounted to 8.23%.
The same measure for `COc1ccc(-c2cc(C(=O)Nc3ccc(C)c(N)c3)c3ccccc3n2)cc1`: 15.3%; for `CC1CCCCN1S(=O)(=O)c1ccc(C(=O)N2CCOCC2)cc1` (centres unmarked): 16.8%; for `CC(C)NS(=O)(=O)c1ccc(OCC(=O)NCC2CCCO2)c(Cl)c1` (centres unmarked): -3%.
The same measure for `CCOc1ccc(-n2c(-c3ccc(Br)cc3)c[n+]3c2CCCCC3)cc1.[Br-]`: -77.7%; for `c1ccc(N2CCN(c3ncnc4c3oc3ccccc34)CC2)cc1`: 2.36%; for `CC(C)(C)C(=O)NC(c1ccccc1)c1c(O)ccc2ccccc12` (centres unmarked): 25.4%.
Regarding `COc1ccc(OCC(=O)N2CCN(S(=O)(=O)c3ccc(Cl)cc3)CC2)cc1`, the “hERG current change (%, negative = inhibition) at 10uM” value is -22.9%.
`Cl.c1ccc2c(c1)oc1c(Nc3ccc(CN4CCOCC4)cc3)ncnc12`: the “hERG current change (%, negative = inhibition) at 10uM” value is -62%.
For `OCc1ncc(-c2ccccc2)s1`, the “hERG current change (%, negative = inhibition) at 10uM” value came out at 0.258%.
In the case of `CC(C)(C)c1ccccc1N=Cc1ccc2ccccc2n1`, the “hERG current change (%, negative = inhibition) at 10uM” value is 12.1%.
For `Cc1cc(C)cc(NC(=O)C/C(N)=N/O)c1`, the “hERG current change (%, negative = inhibition) at 10uM” value was determined as 9%.
In the case of `O=C(NCCC1=CCCCC1)c1cnc2n(c1=O)CCS2`, the “hERG current change (%, negative = inhibition) at 10uM” value is on record as -35.7%.
The same measure for `Cc1cccc(C)c1NC(=S)NC(=O)CCc1ccccc1`: -4.92%; for `COc1cc2c(c(OC)c1)C(c1cccc(OC)c1OC)CC(=O)N2` (centres unmarked): 5.17%; for `O=C(NCCO)/C(=C/c1ccco1)NC(=O)c1ccco1`: 13.7%.
Turning to `CNS(=O)(=O)c1cccc(C(=O)OCc2cc(=O)n3cc(Br)ccc3n2)c1`, the “hERG current change (%, negative = inhibition) at 10uM” value is on record as -36.5%.
The same measure for `COc1ccc(CCC(=O)Nc2ccc(S(=O)(=O)Nc3ncccn3)cc2)cc1`: 4.03%; for `O=C(NC1CC2CCCC(C1)N2Cc1ccc(F)cc1)c1ccc(F)cc1` (centres unmarked): -70.8%.
For `CN(C)c1ccc2c(=O)[nH][nH]c(=O)c2c1`, the “hERG current change (%, negative = inhibition) at 10uM” value is on record as 20.1%.
Regarding `COC(=O)C1=C(c2ccc(C(C)=O)cc2)C[C@@H]2CC[C@H]1N2C(=O)NCc1ccc(C(F)(F)F)cc1`, the “hERG current change (%, negative = inhibition) at 10uM” value worked out at 30%.
Turning to `CCN1CCN(CC(=O)Nc2ccc(Cl)c(Cl)c2)C(=O)C1=O`, the “hERG current change (%, negative = inhibition) at 10uM” value is -5.76%.
On to `Cc1ccc(SCCC(=O)N2CCCC2)cc1`, for which the “hERG current change (%, negative = inhibition) at 10uM” value turned out to be 9.92%.
Consider `CCS(=O)(=O)N1Cc2ccccc2CC1C(=O)Nc1nnc(SCc2ccc(F)cc2)s1` (centres unmarked), for which the “hERG current change (%, negative = inhibition) at 10uM” value amounted to 9.04%.
The same measure for `Cc1ccc2c(c1)c1n[nH]c(=S)nc1n2CCc1ccccc1`: 13.1%.
For `O=C(Nc1ccncc1)Nc1ccc(F)c(Cl)c1`, the “hERG current change (%, negative = inhibition) at 10uM” value was -7.5%.
Take `COCCCN(C(=O)c1cc2c(s1)CCCCC2)c1c(N)n(Cc2ccccc2)c(=O)[nH]c1=O`: the “hERG current change (%, negative = inhibition) at 10uM” value was determined as 0.561%.
For `O=c1oc2ccccc2c(NCc2ccccc2F)c1[N+](=O)[O-]`, the “hERG current change (%, negative = inhibition) at 10uM” value is -6.99%.
As for `O=[N+]([O-])c1ccc2oc(-c3cccc(O)c3)nc2c1`, the “hERG current change (%, negative = inhibition) at 10uM” value was -6.58%.
Consider `COc1ccccc1NC(=O)c1cc(Cl)nnc1Cl`, for which the “hERG current change (%, negative = inhibition) at 10uM” value is recorded as 19.2%.
With `C[C@H]1COc2c(N3CCN(C)CC3)c(F)cc3c(=O)c(C(=O)O)cn1c23`, the “hERG current change (%, negative = inhibition) at 10uM” value worked out at 11.2%.
With `O=C(O)CCC(=O)Nc1ccc(SSc2ccc(NC(=O)CCC(=O)O)cc2)cc1`, the “hERG current change (%, negative = inhibition) at 10uM” value is recorded as -3.33%.
The same measure for `CCCCNC(=O)CSc1nccn1Cc1ccccc1`: -6.63%; for `COc1ccc(/C=N/Nc2nnc(C)n2N)cc1OC`: 3.07%.
Consider `COc1ccc(-c2nnc(N3CCC(C)CC3)c3ccccc23)cc1`, for which the “hERG current change (%, negative = inhibition) at 10uM” value was -0.63%.
On to `COc1cc(/C=N\Nc2nc(-c3cccs3)c(NC(C)=O)s2)ccc1O`, for which the “hERG current change (%, negative = inhibition) at 10uM” value is -0.00252%.
As to `Cl.c1ccc2c(N3CCNCC3)nsc2c1`, the “hERG current change (%, negative = inhibition) at 10uM” value is given as -5.8%.
`CCOC(=O)Cc1nnc(-c2ccccc2)o1`: the “hERG current change (%, negative = inhibition) at 10uM” value is reported as -4.9%.
